PubChem BioAssay (Tox21)
Inconclusive means that the source gave no clear call. Such entries were picked first, then a sample of the others. No potency is given beside an inconclusive call; the fits are too rough. Where a structure was tested more than once in an assay, its records may differ in their call. The source made the active and inactive calls. Calls follow the shape of the dose curve; as a rule, active = well fitted cell-killing curve with a large enough effect in the repeat runs; inconclusive = weak or mixed curves, or effect the other way; inactive = no such curve, though single readings can be large or run the other way.

assay: qHTS assay to identify small molecule agonists of the farnesoid-X-receptor (FXR) signaling pathway - cell viability counter screen (AID 743218); conditions: FXR-bla HEK293T viability, CellTiter-Glo luminescence, 16 h; viability change, negative = cytotoxic: at 62.6 µM (top of the series) unless noted; also: nearly all actives have a fitted effect of over 45% in size
Description: U.S. Tox21 Program National Center for Advancing Translational Sciences [NCATS] NIH Chemical Genomics Center [NCGC] U.S. Environmental Protection Agency [EPA] National Institutes of Environmental Health Sciences [NIEHS] National Toxicology Program [NTP] U.S. Food and Drug Administration [FDA] Tox21 Assay Overview: The farnesoid-X-receptor (FXR), a nuclear hormone receptor, is highly expressed in liver, intestine, kidney and adrenal cortex. Natural ligands of FXR are the bile acids (Cholic acid, Chenodeoxy cholic acid etc). FXR is an important regulator of diverse metabolic pathways, including the bile acid homeostasis, lipid and glucose metabolisms. FXR regulates the expression of target genes by binding either as a monomer or as a heterodimer with the retinoid X receptor (RXR). Numerous studies have reported that FXR exerts protective function during cholestasis, diabetes, liver regeneration, and cancer. To identify compounds that activate FXR signaling, GeneBLAzer FXR-UAS-bla HEK 293T cell line (Invitrogen, Carlsbad, CA) containing a beta-lactamase reporter gene under the control of a UAS response element was used to screen the Tox21 10K compound library. The cytotoxicity of the Tox21 compound library against the FXR-bla cell line was tested in parallel by measuring the cell viability using CellTiter-Glo assay in the same wells.
Tox21 Assay Protocol Summary: FXR-bla cells were dispensed at 5000 cells/5uL/well in 1536-well black wall/clear bottom plates using a Multidrop Combi (Thermo Fisher Scientific, Waltham, MA) dispenser. After the assay plates were incubated at 37 C and 5% CO2 for 5 h, 23 nL of compounds dissolved in DMSO, positive controls or DMSO only was transferred to the assay plate by a Pintool station (Kalypsys, San Diego, CA). The assay plates were incubated at 37C for 16 h. After 1 uL of LiveBLAzerTM B/G FRET substrate was added using a Bioraptr Flying Reagent Dispenser (FRD) workstation (Beckman Coulter, Indianapolis, IN), the plates were incubated at room temperature for 2 h, and fluorescence intensity was measured by an Envision plate reader (PerkinElmer, Shelton, CT). For cell viability readout that measures cytotoxicity, 4uL/well of CellTiter-Glo reagent was added into the assay plates using a Bioraptr FRD. After 30 min incubation at room temperature, the luminescence intensity in the plates was measured using a ViewLux plate reader (PerkinElmer).
% is scaled to controls: 0 for no effect and ±100 for the full control effect; potency is read from the fitted curve at half-maximal effect; tags tell the direction and shape of the fitted curve.

Row | SMILES | Potency | viability change, negative = cytotoxic
1 | Cc1[nH]cnc1C[C@H]1CCc2c(C)c3ccccc3n2C1=O | inconclusive [cytotoxic, single point] | –
2 | COc1cc2ncnc(Nc3ccc(F)c(Cl)c3)c2cc1OCCCN1CCOCC1 | inconclusive [cytotoxic, partial curve] | –
3 | CCc1ccc2c(c1)C(=O)c1ccccc1C2=O | inconclusive [rising, single point] | –
4 | Cc1nc(N)nc(N)c1-c1ccc(Cl)c(Cl)c1 | inconclusive [cytotoxic, full curve] | –
5 | Nc1nc(Cl)nc2c1ncn2[C@H]1C[C@H](O)[C@@H](CO)O1 | inactive | –
6 | CO[C@H]1C=CO[C@@]2(C)Oc3c(C)c(O)c4c(O)c(c5c(c4c3C2=O)=NC2(CCN(CC(C)C)CC2)N=5)NC(=O)/C(C)=C\C=C/[C@H](C)[C@H](O)[C@@H](C)[C@@H](O)[C@@H](C)[C@H](OC(C)=O)[C@@H]1C | inconclusive [cytotoxic, single point] | –
7 | O=C1CCCC(=O)C1 | inconclusive [rising, single point] | –
8 | O=C1[C@H]2CCCC[C@H]2C(=O)N1CCCCN1CCN(c2nsc3ccccc23)CC1 | inactive | –
9 | C[N+]1(C)CCC(=C(c2ccccc2)c2ccccc2)CC1 | inactive | –
10 | CC(C)(C)C(=O)OCOC(=O)[C@@H]1N2C(=O)[C@@H](NC(=O)[C@H](N)c3ccccc3)[C@H]2SC1(C)C | inactive | –
11 | CCCCN1CCCC[C@H]1C(=O)Nc1c(C)cccc1C | inactive | –
12 | Sc1nc2ccccc2s1 | inactive | –
13 | O=S(=O)(O)c1ccccc1O | inactive | –
14 | CN(C)CC/C=C1\c2ccccc2Sc2ccc(Cl)cc21 | active: 23.7 µM | –
15 | C=CC(=O)OCCOC(=O)C=C | inconclusive [cytotoxic, single point] | –
16 | Nc1nc2ccc(OC(F)(F)F)cc2s1 | inconclusive [rising, partial curve, poor fit] | –
17 | O=C(CCCN1CCN(c2ccc(F)cc2)CC1)NC1c2ccccc2CSc2ccccc21 (stereo not given) | active: 10.6 µM | –
18 | CC[C@H](NC(=O)c1cc(F)ccc1NS(=O)(=O)c1cccc2cccnc12)c1ccccc1 | inactive | –
19 | O=[N+]([O-])c1ccc2ncccc2c1 | – | inconclusive: 21.3%
20 | CC/C=C\CCO | inconclusive [rising, full curve, poor fit] | –

Row | SMILES | Potency | viability change, negative = cytotoxic
21 | CC(C)C[C@@H](N)C(=O)O | inconclusive [rising, full curve, poor fit] | –
22 | CCCCCCCCCCCCCCC[C@H](O)[C@@H](N)CO | inconclusive [rising, full curve, poor fit] | –
23 | CCCCCCCCCCCCCCCCCl | inactive | –
24 | C=C(C)C(=O)OCCOCCOC(=O)C(=C)C | inconclusive [rising, partial curve, poor fit] | –
25 | CN(C)CCCN1c2ccccc2CCc2ccccc21 | active: 19.5 µM | –
26 | CN(C)C(=O)Oc1cccc([N+](C)(C)C)c1 | – | inconclusive: 11.3%
27 | C=CCCCCCCCCCCCCCCCC | – | inactive: 4.85% [at 5.95 µM]
28 | Cc1ccc(-n2nc(C(C)(C)C)cc2NC(=O)Nc2ccc(OCCN3CCOCC3)c3ccccc23)cc1 | inconclusive [cytotoxic, partial curve, poor fit] | –
29 | CCCCCCCCCCC=CC1CC(=O)OC1=O (stereo not given) | inconclusive [rising, full curve, poor fit] | –
30 | O=C1NC(=O)[C@@H]2CC=CC[C@H]12 | active: 21.9 µM | –
31 | CN(C)CCOC(c1ccc(Cl)cc1)c1ccccn1 (stereo not given) | inconclusive [rising, partial curve, poor fit] | –
32 | Cc1cc(-n2nc3ccc(Cl)cc3n2)c(O)c(C(C)(C)C)c1 | inactive | –
33 | O=c1c(-c2ccccc2)c1-c1ccccc1 | active: 9.44 µM | –
34 | CC1=C(C(=O)O)N2C(=O)[C@@H](NC(=O)[C@H](N)C3=CCC=CC3)[C@H]2SC1 | inconclusive [rising, partial curve, poor fit] | –
35 | COc1ccc(Cl)cc1C(=O)NCCc1ccc(S(=O)(=O)NC(=O)NC2CCCCC2)cc1 | inactive | –
36 | CC1=CC(=O)CC(C)(C)C1 | inconclusive [rising, full curve] | –
37 | CC(C)n1c(/C=C/[C@@H](O)C[C@@H](O)CC(=O)O)c(-c2ccc(F)cc2)c2ccccc21 | inconclusive [cytotoxic, partial curve] | –
38 | CCN[C@@H]1C[C@H](N)[C@@H](OC2OC(CN)=CCC2N)[C@H](O)[C@H]1O[C@H]1OC[C@](C)(O)[C@H](NC)[C@H]1O (stereo not given in full) | – | inactive: 10.1% [at 0.55 µM]
39 | CCC(CC)C(C)CCOC(C)=O (stereo not given) | inconclusive [rising, partial curve, poor fit] | –
40 | CN(C)CC/C=C1\c2ccccc2COc2ccccc21 | inconclusive [cytotoxic, partial curve] | –
